# In the supplement of paper PMC9446081:
# Among all 39,000 compounds or so, about 220 (0.56%) showed activity. This is one part of the list.
# Tested on: Escherichia coli K-12 BW25113
# Test: relative growth (OD600 normalised to plate interquartile mean) (fraction); higher = less growth inhibition, active = 0.2 or less
# Conditions: 50 µM; LB; incubation time: overnight (16-24 h)
# 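Further: static incubation at 37 °C against the wild-type strain, values averaged over two biological replicates.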
row,Compound,relative growth
1,CC(C)(C)[S@@](=O)N1Cc2cc(C(=O)N[C@H]3CCN(Cc4ccccc4)C3)nc(-c3cccc(-c4cccnc4)c3)c2[C@H]1CCO,inactive: 0.991
2,COc1cccc(C#Cc2ccc3c(c2)O[C@@H](CN(C)S(=O)(=O)c2ccccc2F)[C@@H](C)CN([C@H](C)CO)S3(=O)=O)c1,inactive: 1.04
3,C[C@H](C(=O)N(C)C[C@@H]1OCc2ccccc2-c2c(n(C)c3ccccc23)C(=O)N([C@@H](C)CO)C[C@@H]1C)c1ccccc1,inactive: 0.994
4,O=S1(=O)CC[C@H](N[C@H]2CCS(=O)(=O)C2)C1,inactive: 0.984
5,C[C@@H]1CN([C@@H](C)CO)C(=O)c2cccc(NS(=O)(=O)c3ccccc3)c2O[C@H]1CN(C)S(=O)(=O)c1cccs1,inactive: 0.991
6,O=C(NCC(F)(F)F)[C@@H]1[C@@H](CO)[C@@H]2Cn3c(cccc3=O)[C@@H]2N1C(=O)C1CCC1,inactive: 1
7,COc1ccc(-c2cnc3c(c2)C(=O)N([C@@H](C)CO)C[C@@H](C)[C@H](CN(C)C(=O)Cc2cccnc2)O3)cc1,inactive: 1.02
8,Cc1ccc(S(=O)(=O)N(C)C[C@H]2Oc3ccc(NC(=O)Cn4cnnn4)cc3CC(=O)N([C@@H](C)CO)C[C@@H]2C)cc1,inactive: 1.01
9,CCS(=O)(=O)Nc1ccc2c(c1)C(=O)N(C)C[C@@H](OC)[C@@H](C)CN(Cc1ccccn1)[C@@H](C)CO2,inactive: 1.01
10,CN(C)C(=O)C[C@H]1C=C[C@H](NC(=O)C2CCOCC2)[C@H](CO)O1,inactive: 1.01
11,COc1ccc2[nH]c3c(-c4cccc5ccccc45)nccc3c2c1,inactive: 1
12,Cc1noc(C)c1S(=O)(=O)Nc1ccc2c(c1)CC(=O)N([C@H](C)CO)C[C@H](C)[C@@H](CN(C)Cc1ccc3c(c1)OCO3)O2,inactive: 0.991
13,O=C(NCCCN1CCOCC1)[C@@H]1[C@@H](CO)[C@@H]2Cn3c(cccc3=O)[C@H]1N2C(=O)C1CCCCC1,inactive: 1.01
14,C[C@H]1CCCCO[C@H](CN(C)S(=O)(=O)c2ccc(Cl)cc2)[C@@H](C)CN([C@@H](C)CO)C(=O)c2cc(NC(=O)Cc3ccccc3)ccc2O1,inactive: 1.03
15,COc1ccc(S(=O)(=O)Nc2ccc3c(c2)CC(=O)N([C@@H](C)CO)C[C@@H](C)[C@@H](CN(C)S(=O)(=O)c2cccs2)O3)cc1,inactive: 1.03
16,NNC(=O)c1ccc(CN2CCCCC2)o1,inactive: 1.01
17,Cc1cc(C)c(S(N)(=O)=O)cc1S(N)(=O)=O,inactive: 1.01
18,CO[C@H]1CN(C)C(=O)c2cc(NC(=O)NC(C)C)ccc2OC[C@@H](C)N(Cc2ccc(-c3ccccn3)cc2)C[C@H]1C,inactive: 1.02
19,Cc1ccc(S(=O)(=O)Nc2ccc3c(c2)C(=O)N([C@H](C)CO)C[C@H](C)[C@@H](CN(C)C(=O)Nc2ccc(C(F)(F)F)cc2)O3)cc1,inactive: 0.995
20,CCC(=O)N[C@H]1CC[C@H](CC(=O)OC)O[C@@H]1CO,inactive: 1.02

row,Compound,relative growth
1,C#CCN1CCS(=O)(=O)CC1,inactive: 0.986
2,C[C@@H]1CN([C@@H](C)CO)C(=O)c2cc(NC(=O)C3CCCCC3)ccc2O[C@@H](C)CCCCO[C@@H]1CN(C)C(=O)Nc1cccc2ccccc12,inactive: 1.01
3,CN1C(=O)C[C@H](C(=O)O)[C@H]1c1cccnc1,inactive: 0.882
4,C[C@@H]1CCCCO[C@H](CN(C)C(=O)CCC(F)(F)F)[C@H](C)CN([C@H](C)CO)C(=O)c2cc(NC(=O)C3CCCCC3)ccc2O1,inactive: 1.02
5,Cc1noc(C)c1NC(=O)N(C)C[C@@H]1Oc2ccc(NC(=O)Nc3cccc4ccccc34)cc2CC(=O)N([C@H](C)CO)C[C@@H]1C,inactive: 0.996
6,O=C1OC(CN2CCOCC2)CN1N=Cc1ccc([N+](=O)[O-])o1 (stereo not given),inactive: 0.575
7,C[C@@H]1CCCCO[C@H](CN(C)S(=O)(=O)c2ccc(F)cc2)[C@H](C)CN([C@@H](C)CO)C(=O)c2cc(NC(=O)Nc3ccc(C(F)(F)F)cc3)ccc2O1,inactive: 1.02
8,C[C@H]1CN([C@@H](C)CO)C(=O)CCCn2cc(nn2)CO[C@H]1CN(C)Cc1cccc2c1OCCCO2,inactive: 1
9,C[C@@H]1CCCCO[C@H](CN(C)Cc2ccccc2)[C@H](C)CN([C@H](C)CO)C(=O)c2cc(NS(=O)(=O)c3ccccc3)ccc2O1,inactive: 0.964
10,C[C@@H]1CN([C@@H](C)CO)C(=O)c2c(c3ccccc3n2C)-c2ccccc2CO[C@H]1CN(C)C(=O)Nc1ccc(-c2ccccc2)cc1,inactive: 1.02
11,Cc1noc(C)c1S(=O)(=O)Nc1cccc2c1O[C@@H](CN(C)Cc1ccc3c(c1)OCO3)[C@@H](C)CN([C@H](C)CO)C2=O,inactive: 1
12,COc1ccc(NC(=O)Nc2ccc3c(c2)C(=O)N([C@H](C)CO)C[C@H](C)[C@@H](CN(C)C(=O)CCC(F)(F)F)OCCCC[C@@H](C)O3)cc1,inactive: 0.993
13,FC(F)(F)c1ccc(CSc2c[nH]c3ccccc23)cc1,inactive: 0.766
14,C[C@H](CO)N1C[C@H](C)[C@@H](CN(C)S(=O)(=O)c2cn(C)cn2)Oc2ncc(C#CCN(C)C)cc2C1=O,inactive: 1.01
15,Cc1noc(C)c1NC(=O)Nc1ccc2c(c1)C(=O)N([C@@H](C)CO)C[C@@H](C)[C@H](CN(C)C(=O)Nc1ccc(F)cc1)OCCCC[C@H](C)O2,inactive: 1
16,COc1ccc([Si](C)(C)[C@@H]2[C@@H](CCn3cc([C@H](O)c4ccccc4)nn3)O[C@]3(C(=O)N(Cc4ccc(N5CCOC5=O)cc4)c4ccccc43)[C@H]2C)cc1,inactive: 1.02
17,COc1ccc(CN(C)C[C@@H]2OCCCC[C@@H](C)Oc3ccc(NC(=O)Nc4c(C)noc4C)cc3C(=O)N([C@@H](C)CO)C[C@H]2C)cc1,inactive: 1
18,Cc1noc(C)c1S(=O)(=O)N(C)C[C@@H]1Oc2ccc(NS(=O)(=O)c3ccccc3)cc2CC(=O)N([C@H](C)CO)C[C@H]1C,inactive: 0.773
19,NC[C@H](c1ccco1)N1CCc2ccccc2C1,inactive: 0.976
20,NCCc1c(C(=O)O)[nH]c2ccc(Br)cc12,inactive: 1
